According to PubChem BioAssay AID1345083 (National Center for Advancing Translational Sciences (NCATS), 2018):
In all, about 94,000 compounds went through this assay and about 6,200 (6.6%) were called active. Inconclusive means that the source gave no clear call. Such entries were picked first, then a sample of the others. Calls come from the whole dose curve; as a rule, active = well fitted inhibition curve with a large enough effect; inconclusive = small, poorly fitted or top-dose-only effect; inactive = flat fitted curve, though single readings scatter. Potencies beside an inconclusive call are fits to weak or partial responses and may not hold up.

Test: Cytotoxic Profiling in HEK 293 Cell Line of Diverse Libraries Using Quantitative High-Throughput Screening; note: nearly all actives have a fitted effect of over 60% in size
Details: HEK 293 viability, ATP luminescence (CellTiter-Glo), 48-72 h; series mostly up to 115 µM
Procedure, shortened: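 Read-out: CellTiter-Glo ATP luminescence. Cells: HEK 293, 250 cells/well. Exposure: 48 or 72 hr, 37 degree Celsius.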
Potency is the fitted concentration of half-maximal effect; tags give direction and shape of the fitted curve.

| SMILES | Potency |
| --- | --- |
| CCOC(=O)c1cccc(NC(=O)CCn2ccn3nc4c(c3c2=O)CCCC4)c1 | inconclusive: 50.1 µM [inhibitor, partial curve, poor fit] |
| CN(Cc1ccc(-c2ccccc2)cc1)Cc1ccccn1 | active: 50.1 µM |
| COC1CCN(c2cc(-c3ccccn3)nc3c(C)noc23)CC1 | active: 63.1 µM |
| O=S(=O)(Cc1ccccc1)N1C[C@@H](F)[C@@H](OCc2nc3ccccc3o2)C1 | inconclusive: 112 µM [inhibitor, single point] |
| NC(=O)[C@@H]1CN(C(=O)c2cccnn2)C[C@H]1COc1ccccc1 | inactive |
| COCC1(C(=O)N2CCC3(CC2)C(=O)N(C)c2ccccc23)CCC1 | inconclusive: 79.4 µM [inhibitor, partial curve, poor fit] |
| COc1ccc2c(C)c(-c3nc(C4CCOC4)no3)oc2c1 (stereo unspecified) | inconclusive: 50.1 µM [inhibitor, partial curve, poor fit] |
| O=C(NCc1cccs1)c1ccc2nnc(-c3cccnc3)n2c1 | inactive |
| C#CCN(C)C[C@@H]1C=C(C)[C@H](Cc2nnc(-c3ccc(C)cc3)o2)C[C@H]1C(C)C | inconclusive: 126 µM [inhibitor, single point] |
| O=C1c2c(nc(CNCc3ccccc3)n2Cc2ccccc2)NCCN1CCOc1ccccc1 | inconclusive: 79.4 µM [inhibitor, partial curve, poor fit] |
| CC1=C[C@@H](CC#N)[C@H](C(C)C)C[C@H]1CC(=O)N1CCN(c2ncccn2)CC1 | inconclusive: 63.1 µM [inhibitor, partial curve, poor fit] |
| CCc1noc(-c2cn(C3CCN(C(=O)c4cccc(OC)c4)CC3)nn2)n1 | inactive |
| Cc1ccc(CNC(=O)N2CCCC(Cn3cnc4cccnc43)C2)cc1 (stereo unspecified) | inconclusive: 89.1 µM [inhibitor, single point] |
| O=C(c1nc(-c2cc(Cl)cc(Cl)c2)c2ccccn12)N1CCOCC1 | inconclusive: 50.1 µM [inhibitor, partial curve, poor fit] |
| CNC(=O)CCn1ncc2cc(OCc3ccccc3-c3ccc(F)cc3C)ccc21 | inconclusive: 17.8 µM [inhibitor, full curve, poor fit] |
| COc1ccc(-c2nc3cc(C)ccc3cc2CN2CCCC(OC)C2)cc1 (stereo unspecified) | inconclusive: 89.1 µM [inhibitor, partial curve, poor fit] |
| N#Cc1cccc(CN(Cc2cccc(C#N)c2)[C@@H]2CO[C@H](CNC(=O)c3ccccc3)[C@H]2O)c1 | active: 79.4 µM |
| COCC(=O)NC1CCN(C(=O)c2ccc(-c3ncccc3C#N)cc2)CC1 | inactive |
| Cn1c(C(=O)N2CCN(c3ccccn3)CC2)cc2c1CCN(Cc1ccccc1)C2 | inconclusive: 50.1 µM [inhibitor, partial curve, poor fit] |
| COc1ccc(Nc2ccnc(N3CCC(C(=O)NCC(F)(F)F)CC3)n2)cc1 | active: 79.4 µM |
| Cc1csc(NC(=O)[C@@H]2C[C@@H](c3cccc(C(F)(F)F)c3)N(Cc3cnn(C)c3)C2)n1 | inconclusive: 50.1 µM [inhibitor, partial curve, poor fit] |
| Cc1nc(-c2c3n(c(=O)n(Cc4ccccc4C(F)(F)F)c2=O)CCCCC3)no1 | inconclusive: 89.1 µM [inhibitor, single point] |

| SMILES | Potency |
| --- | --- |
| Cc1ccc(C(=O)N2CCCn3cc(-c4ccccc4F)nc32)cn1 | inactive |
| Cc1ccc(C2Cn3nnc(C(=O)N4CCC(C(=O)NC5CCN(C)CC5)CC4)c3CO2)cc1 (stereo unspecified) | inactive |
| COc1cc(OC)c(NC(=O)Cn2ccn3nc4c(c3c2=O)CCCC4)cc1Cl | inconclusive: 28.2 µM [inhibitor, partial curve, poor fit] |
| CC(=O)NC1CCCN(c2ccnc3ccnn23)C1 (stereo unspecified) | inactive |
| COc1cccc(CC(=O)NCC2Cn3cccc3CN2Cc2ccccc2)c1 (stereo unspecified) | inconclusive: 89.1 µM [inhibitor, single point] |
| COC(=O)N1CCC[C@@H]1C(=O)N1CCCC(c2nc3ccncc3[nH]2)C1 (stereo partly specified) | inactive |
| O=C(Cc1ccccc1Cl)N1CCC(n2cc(-c3nc(-c4ccccc4)no3)nn2)CC1 | inactive |
| COc1ccc(S(=O)(=O)N2CCOC[C@H](Oc3ccccc3)C2)cc1 | active: 63.1 µM |
| Cn1cc(CN2CCCC(C(=O)N3CCOCC3)C2)c(-c2ccc(C3CCCCC3)cc2)n1 (stereo unspecified) | inactive |
| COC[C@@H]1[C@H](C(=O)N2CCN(c3ccc(F)cc3)CC2)CCCN1Cc1ccccc1 | inconclusive: 44.7 µM [inhibitor, partial curve, poor fit] |
| COC(=O)NC1CCN(c2ccc3nnc(C4CC4)n3n2)CC1 | inactive |
| COc1cccc(-c2noc(Nc3cc(OC)c(OC)c(OC)c3)n2)c1 | active: 44.7 µM |
| COc1ccc(F)cc1-c1cccc(C(=O)NCCNC(=O)c2ccc(Cl)cc2)c1 | active: 44.7 µM |
| Cc1cccnc1CN1C[C@@H](F)[C@@H](OCc2nc3ccccc3o2)C1 | inconclusive: 112 µM [inhibitor, partial curve, poor fit] |
| CC(C)c1cc(CN(C)C(=O)c2cc(COc3ccccc3)[nH]n2)on1 | inconclusive: 56.2 µM [inhibitor, partial curve, poor fit] |
| CC(C)OCCCNC(=O)c1cc(C2CC2)nc2onc(C3CCNCC3)c12 | inactive |
| COc1ccc2nc(CO[C@H]3CN(Cc4cnn(C)c4)C[C@H]3F)[nH]c2c1 | inactive |
| COc1ncccc1-c1nc(-c2c(C)noc2C)cc2c1cc(-c1ccccc1)n2C | active: 28.2 µM |
| COc1cccc(C)c1NC(=O)c1cccc(CN2CCCC(C)C2)c1 (stereo unspecified) | inactive |
| CC(C)c1nc2c(c(-c3ccc(O)cc3)n1)CCN(C(=O)C(C)(C)C)CC2 | inconclusive: 56.2 µM [inhibitor, partial curve, poor fit] |
| Clc1ccc(-c2cnc([C@@H]3COCCN3)[nH]2)cc1 | inconclusive: 178 µM [inhibitor, partial curve, poor fit] |
| CSc1ccc(-c2nc(CN3CCN(C(=O)N(C)C)CC3)c(C)o2)cc1 | inconclusive: 50.1 µM [inhibitor, partial curve, poor fit] |

| SMILES | Potency |
| --- | --- |
| C=CCN(C)C(=O)[C@@H](C)C1CC[C@@]2(C)Cc3sc(NS(=O)(=O)c4ccc(Cl)cc4)nc3[C@@H](C)[C@@H]2[C@H]1O (stereo partly specified) | inconclusive: 56.2 µM [inhibitor, partial curve, poor fit] |
| COc1ccc(CNC2(Cc3cc(-c4ccccc4)on3)COC2)cc1 | inactive |
| CC(=O)NCC(=O)N1Cc2ccccc2CC2(CCN(Cc3ccc(O)cc3)C2)C1 (stereo unspecified) | inactive |
| COc1ccc(F)cc1-c1cccc(C(=O)NCC(=O)NC2CCN(Cc3ccccc3)CC2)c1 | inconclusive: 35.5 µM [inhibitor, partial curve, poor fit] |
| CNC(=O)[C@H]1C[C@H](Oc2ccccc2)CN1C(=O)CCc1c[nH]c2ccccc12 | inconclusive: 79.4 µM [inhibitor, partial curve, poor fit] |
| Cc1ccccc1C(=O)N1CCC(n2cc(-c3nc(-c4ccccc4)no3)nn2)C1 (stereo unspecified) | inconclusive: 39.8 µM [inhibitor, full curve, poor fit] |
| CN1C(=O)CCCCC1C(=O)NCc1ccncc1 (stereo unspecified) | inactive |
| Cc1cc(CN(C)C(=O)c2cc(CN3CCC(Cc4ccccc4)CC3)on2)n[nH]1 | inconclusive: 50.1 µM [inhibitor, partial curve, poor fit] |
| COc1ccc([C@H]2C[C@@H](O)[C@@H](O)[C@@H]2NCc2cn(C)c3ccccc23)cc1 | inconclusive: 70.8 µM [inhibitor, partial curve, poor fit] |
| CCN1C(=O)CCN(S(=O)(=O)c2cccc(F)c2)CC12CCOCC2 | inactive |
| CCOC(=O)C1CCCN(C(=O)c2c(C)oc3c2CN(Cc2ccc(C)cc2)CC3)C1 (stereo unspecified) | inconclusive: 63.1 µM [inhibitor, partial curve, poor fit] |
| Cc1ccc(CNC(=O)c2ccc3c(c2)CN(C2CCSCC2)CCO3)cc1 | inconclusive: 89.1 µM [inhibitor, single point] |
| CCN1c2cc(C(=O)Nc3ccc(Cl)c(F)c3)ccc2C(=O)N2CCCCC21 (stereo unspecified) | active: 35.5 µM |
| CC(C)OCCCNC(=O)c1cc(-c2ccccc2C(F)(F)F)nc2c1cnn2C | inconclusive: 44.7 µM [inhibitor, partial curve] |
| COc1ccc(NC(=O)C2CCc3nnc(CN[S+](C)(=O)[O-])n32)cc1 (stereo unspecified) | inactive |
| Cn1nc(-c2ccncc2)cc1NC(=O)c1cccc(Br)c1 | inconclusive: 50.1 µM [inhibitor, partial curve, poor fit] |
| CC[C@H]1CN(S(C)(=O)=O)CC[C@H]1CC(=O)NCc1cccc2ccccc12 | inactive |
| O=c1c2c(CO)c(-c3ccc(F)cc3)nn2ccn1Cc1cccc(F)c1 | inconclusive: 50.1 µM [inhibitor, partial curve, poor fit] |
| O=C(c1cccc(-n2cnnc2)c1)N1CCCC(O)(CN2CCCC2)C1 (stereo unspecified) | inconclusive: 35.5 µM [inhibitor, single point] |
| O=C(NCc1cccs1)c1csc(N2CCN(c3ccccc3F)CC2)n1 | inconclusive: 56.2 µM [inhibitor, partial curve, poor fit] |
| Cc1ccccc1C(=O)N1CCCC(C(=O)N2CCC(c3ccccc3)CC2)C1 (stereo unspecified) | inconclusive: 79.4 µM [inhibitor, partial curve, poor fit] |
| COCCNC(=O)c1ccc(CC2CCN(C(=O)CCc3c(C)nn(C)c3C)CC2)cc1 | inconclusive: 28.2 µM [inhibitor, full curve, poor fit] |
